Reference: PubChem BioAssay AID1240 (Sanford-Burnham Center for Chemical Genomics, 2008)
In all, about 50,000 compounds went through this assay and about 800 (1.6%) showed an effect of 50% or more. This is one part of the list.

Molecular target: Bcl-2-like protein 10 (Homo sapiens) (UniProt Q9HD36)
Experiment: TR3 peptide-Bcl-B binding displacers, biochemical primary FP assay, phenotype converters (AID 1240);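 further: 0% = Bcl-B with tracer peptide and DMSO and 100% = tracer peptide lacking Bcl-B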
Details: GST-Bcl-B / FITC-TR3 peptide fluorescence polarization; stronger effect = higher value; compound at 3.75 mg/L

Chain of UniProt Q9HD36 (Q9HD36 whole entry, looked up): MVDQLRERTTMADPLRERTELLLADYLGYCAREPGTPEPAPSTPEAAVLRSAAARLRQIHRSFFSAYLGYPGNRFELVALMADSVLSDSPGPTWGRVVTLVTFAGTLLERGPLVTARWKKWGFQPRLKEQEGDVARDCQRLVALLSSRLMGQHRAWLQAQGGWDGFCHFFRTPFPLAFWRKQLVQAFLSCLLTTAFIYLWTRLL

| Structure (SMILES) | displacement |
| --- | --- |
| COc1ccc(C(C)NC(=O)Cc2cccc3ccccc23)cc1 (centres undefined) | -6.8% |
| CC(=O)Nc1ccc(C2=N/C(=C/c3ccc(-c4ccc(C)c(Cl)c4)o3)C(=O)O2)cc1 | -7.2% |
| O=C(Nc1cccc2nsnc12)c1ccccc1[N+](=O)[O-] | 5% |
| O=C1C2C(C(=O)N1/N=C/c1ccc(Br)cc1)C1C=CC2C12CC2 (centres undefined) | 8.3% |
| Cc1cccn2c(=O)c(C=O)c(N3CCC(C)CC3)nc12 | 17% |
| COc1ccc(C(=O)Nc2ccc(N(C)C)cc2)cc1[N+](=O)[O-] | 2.3% |
| O=[N+]([O-])c1ccc(N2CCOCC2)cc1N1CCN(CCO)CC1 | -8.1% |
| Cc1nn(-c2ccccc2)c2sc(C(=O)N/N=C/c3cc4c(cc3[N+](=O)[O-])OCO4)cc12 | -1.4% |
| c1ccc(C(=NCCN=C(c2ccccc2)c2ccccc2)c2ccccc2)cc1 | -4.8% |
| CCOC(=O)c1c(NC(=O)/C=C/c2ccc(OC)cc2)sc2c1CCCC2 | 1.3% |
| Cc1ccc(C(=O)CC2(O)C(=O)N(C)c3ccccc32)cc1 (centres undefined) | 9.6% |
| CCOP(C)(=O)C(CC(=O)OC)C(=O)OC (centres undefined) | -7% |
| CCOC(=O)c1c(CN(C)C)n(-c2ccccc2)c2ccc(OC(C)=O)cc12 | 1.5% |
| O=C(Nc1ccc(Cl)cc1)Nc1nnc(-c2cccc(F)c2)s1 | 8% |
| N#Cc1cc2c(nc1SCC(=O)Nc1nccs1)CCCCC2 | -4.1% |
| COc1cccc(N(CC(=O)Nc2ccc(Cl)cc2)S(=O)(=O)c2ccccc2)c1 | 13.7% |
| COc1ccc(N2C(=O)CC(Nc3ccc(Cl)cc3)C2=O)cc1 (centres undefined) | -7.2% |
| C=CCc1cccc(/C=N/NC(=O)c2cc(-c3ccc4ccccc4c3)n[nH]2)c1O | -13.5% |
| CC(C)CC(=O)N1CCN(C(=O)c2ccc(-c3ccccc3)cc2)CC1 | 13.7% |
| CN(C)c1ccc(/C=N/Nc2nnc3c(n2)[nH]c2ccc(Br)cc23)cc1 | -7.2% |
| Cc1cc(C)cc(OCCCc2c(C)n[nH]c2C)c1 | -8% |
| COc1ccc(NC(=O)CN(c2ccc(C)cc2)S(=O)(=O)c2ccc(OC)c(OC)c2)c(OC)c1 | 18.2% |

| Structure (SMILES) | displacement |
| --- | --- |
| O=C(O)C1(P(=O)(c2ccccc2)c2ccccc2)CC1 | -2.4% |
| O=C(O)/C=C/C(=O)Nc1ccc2c(c1)OCO2 | 5.9% |
| COc1ccc(C(=O)NN2CCOCC2)cc1OC | -3.1% |
| O=C(/C=C/c1ccco1)Nc1sc2c(c1C(=O)O)CCC2 | -3.2% |
| CN(C)c1ccc(/C=C2\SC(=Nc3ccc(O)cc3)NC2=O)cc1 | 50.9% |
| COc1ccc(/C(N)=N/OC(=O)c2ccccc2Cl)cc1 | -7.4% |
| C=CCNC(=S)N/N=C/c1cccc([N+](=O)[O-])c1 | -12.7% |
| Cc1cc(=O)oc2c1c(C)nn2-c1cccc(C(F)(F)F)c1 | 8.5% |
| O=C(/C=C/c1cccs1)NCCN1CCOCC1 | 12.9% |
| COc1ccc(/C=C/C(=O)Oc2ccc(C)c(C)c2)cc1OC | -4.2% |
| O=C(Nc1cccc(-c2nc3ccccc3o2)c1)c1ccc(N2C(=O)C3C4C=CC(C4)C3C2=O)cc1 (centres undefined) | -1.5% |
| COc1ccc(-c2cc(-c3ccccc3)nc(=O)[nH]2)cc1 | 2.3% |
| O=C(/C=C/c1ccccc1Cl)NCc1ccccn1 | 1.9% |
| Cc1c(NC(=O)c2ccc(-c3cccc([N+](=O)[O-])c3)o2)cccc1-c1nc2ccccc2s1 | 3.7% |
| Cc1cc(C)cc(N2C(=O)NC(=O)/C(=C\c3cccc(F)c3)C2=O)c1 | 2.3% |
| CC(=O)CC(=O)Nc1ccc2c(c1)OCCO2 | 4.1% |
| COc1cccc(CN2CCN(C(=O)c3ccccc3)CC2)c1 | 5.7% |
| CC(=O)Nc1c(C)cc(C(C)(C)c2cc(C)c(NC(C)=O)c(C)c2)cc1C | 13.9% |
| CCCOc1c(I)cc(I)cc1/C=C(/C#N)c1nc2ccc(C)cc2[nH]1 | -4.9% |
| C/C(=C\c1ccc(I)cc1)C(=O)c1c(C)cc(C)[nH]c1=O | 10.8% |
| N#C/C(=C\c1ccc(-c2ccccc2[N+](=O)[O-])o1)c1nn(-c2ccccc2)c(N)c1C#N | 9.1% |
| COc1ccc(CCNC(=O)c2cc(Cl)ccc2OC)cc1 | -1.6% |

| Structure (SMILES) | displacement |
| --- | --- |
| O=C(CCCN1C(=O)/C(=C\c2cccs2)SC1=S)Nc1nccs1 | 114% |
| CCOC(=O)COc1ccc(/C=N/NC(=O)c2nonc2N)cc1OC | 3% |
| CCCN1CCC(=NNC(=O)c2cccc(Br)c2)CC1 | 3.7% |
| O=C(Nc1cccnc1)c1cc(-c2ccccc2Cl)nc2ccccc12 | -4.9% |
| FC(F)(F)c1cc(-c2cccs2)nc2cc(-c3ccccc3)nn12 | 11% |
| CN(C)c1ccc(/C=C2\C(=O)c3cccc([N+](=O)[O-])c3C2=O)cc1 | 11.9% |
| O=C(/C=C/c1cccc([N+](=O)[O-])c1)Nc1ccc(O)c(-c2nc3ccccc3o2)c1 | -2.4% |
| O=[N+]([O-])c1ccc(Oc2ccc(/C=N/O)cc2)nc1 | 8.5% |
| O=C1c2ccc3c4c(ccc(c24)C(=O)N1CCOc1ccccc1Cl)CC3 | 15.1% |
| O=C(N/N=C/c1ccccn1)c1ccc(O)cc1O | -2.6% |
| COc1ccc(CNC(=O)c2c(Cl)cccc2Cl)cc1 | -5.7% |
| OC(CC#CCN1CCC(c2ccccc2)C1)(c1ccccc1)c1ccccc1 (centres undefined) | 10.5% |
| NC(=O)c1ccc(NC(=O)COc2ccc(Cl)cc2Br)cc1 | -6% |
| CCOc1ccc(NC(=O)C2C(c3ccccc3)C2(Cl)Cl)cc1 (centres undefined) | 2.6% |
| CCOc1ccc2noc3c2c1C(=O)c1ccccc1-3 | 123% |
| COc1cc(C=NN2CCN(c3ccc(Cl)cc3)CC2)cc(OC)c1OC(C)=O | -3.3% |
| O=C(Nc1ccc(NC(=O)c2ccccc2[N+](=O)[O-])cc1)c1ccco1 | -8.2% |
| COc1ccccc1/C=C1/C(=O)NC(=O)N(c2ccccc2OC)C1=O | -2.3% |
| O=c1c(-c2ccc(Cl)cc2)coc2c(CN3CCCCC3)c(O)ccc12 | -15.4% |
| CCCOc1cccc(C(=O)Nc2cc3nn(-c4ccc(OC)cc4)nc3cc2C)c1 | -1.7% |
| Cc1ccc(C(=O)Nc2ccc(-c3nc4cc5ccccc5cc4[nH]3)cc2)cc1[N+](=O)[O-] | 1.6% |
| CCOC(=O)c1c(-c2ccc(C(C)C)cc2)csc1N | -9.2% |

| Structure (SMILES) | displacement |
| --- | --- |
| CCOC(=O)c1ccccc1NC(=O)CCNS(=O)(=O)c1ccccc1[N+](=O)[O-] | 7.8% |
| Cc1cccc(CN2CCN(C(=O)c3ccncc3)CC2)c1 | -8.3% |
| CC1=CC(C)(C)Nc2ccc(OC(=O)c3ccccc3Br)cc21 | 6.5% |
| OC(CNCc1ccccc1)(c1ccccc1)c1ccc(Cl)cc1 (centres undefined) | -9.4% |
| Cc1ccc(NC(=O)c2ccccc2Br)cc1 | -2.1% |
| Cc1ccc(NC(=O)c2ccc(OCc3ccccc3)cc2)c([N+](=O)[O-])c1 | 10.1% |
| CC1(C)CC(=O)c2c(oc3ccc(NS(=O)(=O)c4cccc([N+](=O)[O-])c4)cc23)C1 | -1.2% |
| O=C(NCCO)C(=O)NCc1ccccn1 | -5.2% |
| CSC1=C(C#N)C(c2ccco2)CC(=O)N1 (centres undefined) | -6.5% |
| O=C(Nc1cc(Br)cc2cccnc12)c1ccc(Cl)cc1 | -7.2% |
| Cc1ccnc(NC(=O)/C=C/c2cccc([N+](=O)[O-])c2)c1 | 14.3% |
| COC(=O)c1ccc(N2C(=O)c3ccc(OC)c(OC)c3C2=O)cc1 | -7.1% |
| Cc1cc(Cl)ccc1OCC(=O)NNC(=O)Cc1cccs1 | 1.6% |
| COc1ccc(C(=O)Nn2cc3cc([N+](=O)[O-])ccc3n2)cc1 | -9.5% |
| CCc1ccc(NC2=C(Cl)C(=O)N(c3ccc(C)cc3)C2=O)cc1 | 18.4% |
| CCOC(=O)C1=C(C)N=c2s/c(=C\c3ccc(N(C)C)cc3)c(=O)n2C1/C=C/c1ccccc1 (centres undefined) | 2.8% |
| O=C(COc1ccccc1[N+](=O)[O-])Nc1ccc(Br)cn1 | 3.3% |
| O=C(COc1cc(Cl)ccc1Cl)Nc1ccccc1F | -1.3% |
| Cc1ccc(OCCSc2nc(C)cc(=O)[nH]2)c(C(C)C)c1 | 6.3% |
| COc1ccc(C2Nc3ccccc3C(=O)N2Cc2ccco2)cc1COc1ccc(Cl)cc1 (centres undefined) | 13.2% |
| COc1ccc(N/C(C)=C/C2=[N+](c3ccccc3)C(O)(c3ccccc3)CS2)cc1 (centres undefined) | -6.8% |
| Cc1sc2nc(-c3ccc(-c4cccc([N+](=O)[O-])c4)o3)[nH]c(=O)c2c1C | -15.4% |

| Structure (SMILES) | displacement |
| --- | --- |
| O=C(NCc1ccco1)C(=O)Nc1ccc2c(c1)OCO2 | 11.5% |
| O=C(CCC1CCCCC1)N1CCN(c2cccc(Cl)c2)CC1 | -9.9% |
| Nc1nc2nc(-c3ccco3)cc(C(F)(F)F)n2n1 | 8% |
| O=C(CCN1C(=O)c2ccccc2C1=O)Nc1cc(C(F)(F)F)ccc1Cl | -2.6% |
| COc1ccc(/C=C2\C(=O)NC(=O)N(c3ccc(Br)c(C)c3)C2=O)c(OC)c1 | -20.2% |
| Fc1ccc(NC(=S)NCCC2=CCCCC2)cc1 | 0.6% |
| Cc1cccc(NC(=O)C(=O)NCc2ccc3c(c2)OCO3)c1 | 12.8% |
| O=C(Cc1cccc2ccccc12)Nc1ccc2c(c1)OCCO2 | 10.8% |
| O=C(Cc1ccc(Cl)cc1)NNC(=O)C1CCCO1 (centres undefined) | 2.5% |
| Cc1ccc(C)c(S(=O)(=O)Nc2ccccc2)c1 | 8.2% |
| CCN1C(=O)/C(=C\c2ccc([N+](=O)[O-])cc2)C(C(=O)OC)=C1C | -16.2% |
| Cc1ccc(S(=O)(=O)c2ccc(Oc3ccc(Cl)cc3)cc2)cc1 | 2% |
| COc1ccc(OCC(=O)Nc2ccc(-c3nc4ncccc4o3)cc2)cc1 | -0.9% |
| CC(C)c1ccc(/C=C(\NC(=O)c2ccccc2)C(=O)NCC2CCCO2)cc1 (centres undefined) | 9.8% |
| Cc1no[n+]([O-])c1COc1ccccc1/C=N/n1nnnc1N | -19.5% |
| O=C(c1cccs1)N1CCN(c2ccc([N+](=O)[O-])cc2F)CC1 | 0.7% |
| CCOc1cc(C(=O)Nc2ccc(F)cc2F)cc(OCC)c1OCC | 7.2% |
| Cc1cccc(NC(=O)CN(c2ccc(C(C)C)cc2)S(=O)(=O)c2ccccc2)c1 | 2.4% |
| Cc1cc(C)cc(NC(=O)COc2cccc(Cl)c2)c1 | -11.3% |
| CCOc1cc(/C=N/NC(=O)c2ccccn2)ccc1OC(=O)c1ccccc1 | -0.8% |
| COc1ccc(CCNC(=O)c2ccc([N+](=O)[O-])cc2)cc1OC | -0.9% |
